Laboratory results from the CheMixHub viscosity set.
“And” between values parts separate entries of the source, which are not always exact repeats. Equal entries are not always repeated. This continues a long series; more values of the same kind are listed elsewhere.

Experiment: xn = mol fraction of the nth substance listed

c1ccncc1 + O
Conditions	viscosity
298.15 K, 101 kPa, x1 = 0.0118	0.991 mPa·s
298.15 K, 101 kPa, x1 = 0.014	0.934 mPa·s
298.15 K, 101 kPa, x1 = 0.0223	1.1 mPa·s
298.15 K, 101 kPa, x1 = 0.0243	1.11 mPa·s
298.15 K, 101 kPa, x1 = 0.02471	1.135 mPa·s
298.15 K, 101 kPa, x1 = 0.0389	1.262 mPa·s
298.15 K, 101 kPa, x1 = 0.0396	1.246 mPa·s
298.15 K, 101 kPa, x1 = 0.04031	1.27 mPa·s
298.15 K, 101 kPa, x1 = 0.06219	1.403 mPa·s
298.15 K, 101 kPa, x1 = 0.06665	1.485 mPa·s
298.15 K, 101 kPa, x1 = 0.089	1.62 mPa·s
298.15 K, 101 kPa, x1 = 0.09278	1.692 mPa·s
298.15 K, 101 kPa, x1 = 0.1102	1.78 mPa·s
298.15 K, 101 kPa, x1 = 0.1113	1.778 mPa·s
298.15 K, 101 kPa, x1 = 0.1182	1.789 mPa·s
298.15 K, 101 kPa, x1 = 0.121	1.83 mPa·s
298.15 K, 101 kPa, x1 = 0.1327	1.884 mPa·s
298.15 K, 101 kPa, x1 = 0.134	1.863 mPa·s
298.15 K, 101 kPa, x1 = 0.1572	2.005 mPa·s
298.15 K, 101 kPa, x1 = 0.1857	2.051 mPa·s and 2.106 mPa·s
298.15 K, 101 kPa, x1 = 0.2186	2.147 mPa·s
298.15 K, 101 kPa, x1 = 0.2191	2.194 mPa·s
298.15 K, 101 kPa, x1 = 0.2545	2.2 mPa·s
298.15 K, 101 kPa, x1 = 0.2553	2.259 mPa·s
298.15 K, 101 kPa, x1 = 0.2664	2.216 mPa·s
298.15 K, 101 kPa, x1 = 0.2971	2.244 mPa·s
298.15 K, 101 kPa, x1 = 0.3473	2.191 mPa·s
298.15 K, 101 kPa, x1 = 0.406	2.115 mPa·s
298.15 K, 101 kPa, x1 = 0.4736	1.92 mPa·s
298.15 K, 101 kPa, x1 = 0.6246	1.442 mPa·s
298.15 K, 101 kPa, x1 = 0.811	1.081 mPa·s
298.23 K, 101.33 kPa, x1 = 0.0244	1.116 mPa·s
298.23 K, 101.33 kPa, x1 = 0.05159	1.336 mPa·s
298.23 K, 101.33 kPa, x1 = 0.08889	1.598 mPa·s
298.23 K, 101.33 kPa, x1 = 0.1311	1.833 mPa·s
298.23 K, 101.33 kPa, x1 = 0.1829	2.032 mPa·s
298.23 K, 101.33 kPa, x1 = 0.2523	2.187 mPa·s
298.23 K, 101.33 kPa, x1 = 0.3128	2.225 mPa·s
298.23 K, 101.33 kPa, x1 = 0.3507	2.186 mPa·s
298.23 K, 101.33 kPa, x1 = 0.4791	1.894 mPa·s
298.23 K, 101.33 kPa, x1 = 0.6741	1.35 mPa·s
298.23 K, 101.33 kPa, x1 = 0.8126	1.064 mPa·s
298.23 K, 101.33 kPa, x1 = 0.8863	0.79 mPa·s
298.23 K, 101.33 kPa, x1 = 0.9185	0.942 mPa·s
298.23 K, 101.33 kPa, x1 = 0.9575	0.917 mPa·s
298.25 K, 101.33 kPa, x1 = 0.1	1.67 mPa·s
298.25 K, 101.33 kPa, x1 = 0.2	2.09 mPa·s
298.25 K, 101.33 kPa, x1 = 0.25	2.18 mPa·s
298.25 K, 101.33 kPa, x1 = 0.3	2.22 mPa·s
298.25 K, 101.33 kPa, x1 = 0.4	2.07 mPa·s
298.25 K, 101.33 kPa, x1 = 0.6	1.57 mPa·s
298.25 K, 101.33 kPa, x1 = 0.8	1.09 mPa·s
298.25 K, 101.33 kPa, x1 = 0.9	0.95 mPa·s
318.15 K, 101 kPa, x1 = 0.5002	1.17 mPa·s
318.15 K, 101 kPa, x1 = 0.5998	1.029 mPa·s
318.15 K, 101 kPa, x1 = 0.7002	0.9006 mPa·s
318.15 K, 101 kPa, x1 = 0.8004	0.8021 mPa·s
318.15 K, 101 kPa, x1 = 0.8999	0.7334 mPa·s
